The values that follow come from patent US20210047394A1 (Hoffmann-La Roche, published 2021).

The target of experiment [1] is T1, huVEGF121 (R&D Systems, UK, Cat. No. 298-VS) (human, UniProt P15692-9 27-147).
T1 construct: domain: VEGF121; also called hVEGF
T1 sequence (looked up): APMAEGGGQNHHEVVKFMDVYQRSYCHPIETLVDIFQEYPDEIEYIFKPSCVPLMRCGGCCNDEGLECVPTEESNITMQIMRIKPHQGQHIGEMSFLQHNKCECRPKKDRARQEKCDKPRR
Nature of the experiment: inhibition of huVEGF121 binding to coated hVEGF-R (ELISA).

Experiment [2] addresses T2, rhVEGF (R&D Systems Cat. No. 293-VE) (human, UniProt P15692 181-395).
T2 construct: Analyte in the Biacore assays; also called VEGF-A
T2 sequence: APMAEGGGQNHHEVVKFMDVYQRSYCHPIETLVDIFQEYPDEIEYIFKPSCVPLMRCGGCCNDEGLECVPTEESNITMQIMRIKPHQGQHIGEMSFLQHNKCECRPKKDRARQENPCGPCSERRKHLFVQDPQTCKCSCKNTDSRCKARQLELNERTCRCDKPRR
The experiment in a line: SPR (Biacore T100), antibody captured via anti-hIgG-Fc, VEGF analyte, 25 C.

B1: <VEGF-ANG-2> TvAb-2441-bevacizumab-LC08 (bispecific antibody, human IgG1, kappa)
heavy: EVQLVESGGGLVQPGGSLRLSCAASGYTFTNYGMNWVRQAPGKGLEWVGWINTYTGEPTYAADFKRRFTFSLDTSKSTAYLQMNSLRAEDTAVYYCAKYPHYYGSSHWYFDVWGQGTLVTVSS[human IgG1 constant region left out]GGGGSGGGGSGGGGSGGGGSQVQLVESGGGVVQPGGSLRLSCAASGFTFSSYGMHWVRQAPGKCLEWVAVISYDGSNKYYADSVKGRFTISRDNSKNTLYLQMNSLRAEDTAVYYCAKPTLDIYMGYYYGMDVWGQGTTVTVSSGGGGSGGGGSGGGGSGGGGSQPVLTQPPSASGAPGQRVTISCSGFASNIGSNSVNWYQQVPGTAPKLLIYNNDQRPSGVPDRFSGSRSGTSASLAISGLQSEDEADYYCAAWDDSLNGPVFGCGTKLTVL
light: DIQMTQSPSSLSASVGDRVTITCSASQDISNYLNWYQQKPGKAPKVLIYFTSSLHSGVPSRFSGSGSGTDFTLTISSLQPEDFATYYCQQYSTVPWTFGQGTKVEIKRTVAAPSVFIFPPSDEQLKSGTASVVCLLNNFYPREAKVQWKVDNALQSGNSQESVTEQDSKDSTYSLSSTLTLSKADYEKHKVYACEVTHQGLSSPVTKSFNRGEC
notes: Tetravalent; scFv at C-terminus of the heavy chain, (G4S)4 linkers, VH44/VL100 disulfide
Regarding B1, in experiment [1], the IC50 turned out to be 2.31 µg/mL. The same molecule yielded a Kd in experiment [2] of 0.34 nM.
